From PubChem BioAssay AID504332 (National Center for Advancing Translational Sciences (NCATS), 2011)
Among all 350,000 compounds or so, about 31,000 (8.9%) were called active. The inconclusive results got no clear call from the source; some entries with a clear call stand among them for comparison. The call rests on the fitted dose curve; in most records, active means well fitted inhibition curve with a large enough effect; inconclusive means small, poorly fitted or top-dose-only effect; inactive means no such curve, though single readings can be large or run the other way. Where the call is inconclusive, the potency comes from a doubtful curve fit.

These molecules were tested against Histone-lysine N-methyltransferase EHMT2 (Homo sapiens) (UniProt Q96KQ7) (assay: qHTS Assay for Inhibitors of Histone Lysine Methyltransferase G9a). Conditions: G9a H3K9 monomethylation, AlphaScreen, 2 h; activity, negative = inhibition: at 59 µM (top of the series) unless noted.
UniProt Q96KQ7, sequence (Q96KQ7 whole entry, looked up): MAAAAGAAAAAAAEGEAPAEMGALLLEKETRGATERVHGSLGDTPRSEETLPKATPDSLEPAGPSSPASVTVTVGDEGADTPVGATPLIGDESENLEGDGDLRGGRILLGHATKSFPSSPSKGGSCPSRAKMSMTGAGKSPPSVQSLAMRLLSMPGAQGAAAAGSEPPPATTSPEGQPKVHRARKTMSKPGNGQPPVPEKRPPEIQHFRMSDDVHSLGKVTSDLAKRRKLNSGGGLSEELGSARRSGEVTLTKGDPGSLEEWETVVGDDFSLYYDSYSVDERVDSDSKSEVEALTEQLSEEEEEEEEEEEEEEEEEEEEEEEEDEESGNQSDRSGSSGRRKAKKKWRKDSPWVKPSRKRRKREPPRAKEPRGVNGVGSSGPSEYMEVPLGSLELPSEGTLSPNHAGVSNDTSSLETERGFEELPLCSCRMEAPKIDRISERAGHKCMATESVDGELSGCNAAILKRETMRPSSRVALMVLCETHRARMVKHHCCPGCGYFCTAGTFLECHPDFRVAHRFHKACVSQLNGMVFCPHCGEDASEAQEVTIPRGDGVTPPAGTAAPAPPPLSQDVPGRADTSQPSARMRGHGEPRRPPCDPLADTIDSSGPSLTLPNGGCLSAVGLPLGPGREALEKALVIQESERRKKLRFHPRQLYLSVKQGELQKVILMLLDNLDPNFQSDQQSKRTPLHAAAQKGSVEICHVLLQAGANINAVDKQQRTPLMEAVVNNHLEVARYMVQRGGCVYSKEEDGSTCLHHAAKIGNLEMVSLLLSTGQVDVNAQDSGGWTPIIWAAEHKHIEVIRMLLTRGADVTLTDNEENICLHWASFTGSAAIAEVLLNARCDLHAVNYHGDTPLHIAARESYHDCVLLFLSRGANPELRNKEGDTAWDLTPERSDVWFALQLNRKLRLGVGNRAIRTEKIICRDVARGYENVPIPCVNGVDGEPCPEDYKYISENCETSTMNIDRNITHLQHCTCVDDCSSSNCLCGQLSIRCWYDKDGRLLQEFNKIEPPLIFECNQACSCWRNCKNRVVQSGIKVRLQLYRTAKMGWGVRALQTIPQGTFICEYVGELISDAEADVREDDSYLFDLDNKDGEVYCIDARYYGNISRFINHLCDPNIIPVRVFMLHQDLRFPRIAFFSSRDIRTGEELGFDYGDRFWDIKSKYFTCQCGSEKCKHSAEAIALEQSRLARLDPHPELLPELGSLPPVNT
Outline: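 G9a (20 nM) was preincubated 15 min with compound, then reacted 2 h at room temperature with 500 nM biotin-H3K9 peptide and 20 µM SAM. Monomethyl-H3K9 detected by AlphaScreen using anti-H3K9me1 antibody.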
Further: nearly all actives have a fitted effect of over 75% in size.
On the % scale 0 is the no-effect control and ±100 the full control effect; potency means the concentration at half of the fitted maximal effect; tags describe the fitted curve by direction and shape.

SMILES	Potency	activity, negative = inhibition
Cc1cccc(Nc2nnc(SCC(=O)Nc3cccnc3Cl)s2)c1	inconclusive: 35.5 µM [inhibitor, single point]	
CN1/C(=C\C=[N+](C)c2ccccc2)C(C)(C)c2ccccc21	inconclusive: 50.1 µM [inhibitor, partial curve, poor fit]	
COc1ccccc1CNC(=O)c1sc2nc3n(c(=O)c2c1C)CCC3	inactive	
Cc1[nH]c2ccccc2c1NC(=O)CN1CCN(Cc2ccc3c(c2)OCO3)CC1	active: 56.2 µM	
CC1(C)CC(=O)C(C=Nc2ccc(O)c(N=CC3=C(O)CC(C)(C)CC3=O)c2)=C(O)C1	active: 20 µM	
O=C(NCc1ccccc1Cl)C1CCN(S(=O)(=O)N2CCCCCC2)CC1	inconclusive: 89.1 µM [inhibitor, single point]	
CC1(C)Cc2ccccc2-c2nnc(SCC(=O)N3CCc4ccccc43)n21	inconclusive: 1.58 µM [inhibitor, partial curve, poor fit]	
Cc1ccc(S(=O)(=O)c2nc(Nc3ccccc3C#N)sc2Cl)cc1	active: 7.94 µM	
Cc1cc(C)nc(CCNC(=O)CC2C(=O)NCCN2Cc2ccc(F)cc2Cl)n1 (stereo not drawn)	active: 44.7 µM	
CCOC(=O)N1CCN(c2ccncc2S(=O)(=O)N2CCCCC2)CC1	inactive	
Cc1ccc2cc(C#N)c(SCC(=O)N3CCCc4ccccc43)nc2c1C		inactive: 7.61% [at 12.7 µM]
O=S1(=O)CCOC[C@H](CC2CCCCC2)N1Cc1ccccc1	inconclusive: 89.1 µM [inhibitor, single point]	
CN(Cc1ccc(F)cc1)C(=O)c1cccc(OC2CCN(C3CCCC3)CC2)c1	inconclusive: 89.1 µM [inhibitor, single point]	
Cc1ccc(C)c(N2CCN(C(=O)c3ccc4[nH]c(C)c(C)c4c3)CC2)c1	inactive	
COc1ccc(-c2nc(CS(=O)CC(=O)NCCC3=CCCCC3)c(C)o2)cc1 (stereo not drawn)	active: 79.4 µM	
Fc1cccc(CNc2ncnc3ccc(-c4cccnc4)cc23)c1		inactive: -5.1% [at 12.7 µM]
Cc1nn(-c2ccccc2)c(Cl)c1C1C(C#N)=C(N)Oc2n[nH]c(C)c21 (stereo not drawn)	inconclusive: 3.98 µM [inhibitor, single point]	
N#C/C(=C(/O)COc1ccccc1)c1nnc2n1CCCCC2	inconclusive: 89.1 µM [inhibitor, partial curve, poor fit]	
CCC(C)[C@H](NC(=O)[C@@H]1Cc2ccccc2CN1C(=O)OC(C)(C)C)C(=O)NCC1CCC(C(=O)O)CC1 (stereo partly drawn)	inconclusive: 56.2 µM [inhibitor, single point]	
Cc1cccc(C)c1OCC(=O)NCc1nnc(SCC(=O)NC2CCCCC2C)n1C (stereo not drawn)	inconclusive: 2.24 µM [inhibitor, partial curve, poor fit]	
Oc1cccc(C(Nc2nccs2)c2ccc3cccnc3c2O)c1 (stereo not drawn)	inconclusive: 50.1 µM [inhibitor, partial curve, poor fit]	
O=C(CN1C2CCCC1CC(NC(=O)C1CCCCC1)C2)Nc1ccccc1C(F)(F)F (stereo not drawn)	inconclusive: 5.62 µM [inhibitor, partial curve, poor fit]	
CCc1cc(C(=O)N=Nc2c(O)[nH]c3c(Br)cc(Br)cc23)c2ccccc2n1	inconclusive: 1.41 µM [inhibitor, full curve, poor fit]	

SMILES	Potency	activity, negative = inhibition
COCc1nnc(NC(=O)c2ccc3c(c2)OCO3)s1	inactive	
C=Cc1ccc(C(=O)N2CCCC(Nc3ccc4c(c3)OCCO4)C2)cc1 (stereo not drawn)	active: 39.8 µM	
Cn1cccc1/C=N/NC(=O)c1cccc(OC(F)(F)C(F)F)c1	inconclusive: 39.8 µM [inhibitor, single point]	
CCc1nc(Nc2ccccc2O)c2oc3ccccc3c2n1	inconclusive: 89.1 µM [inhibitor, partial curve, poor fit]	
COc1ccccc1CNC(=O)CN1C(=O)CCc2cc(S(=O)(=O)N3CCOCC3)ccc21	inactive	
Cn1c(SCc2ccc(Br)cc2)nnc1-c1cccs1	inconclusive: 0.562 µM [inhibitor, full curve, poor fit]	
COc1ccc(N2CCN(C(=S)NC(=O)c3cccs3)CC2)c([N+](=O)[O-])c1	active: 31.6 µM	
COc1ccc(NC(=S)N2CCCC2)c(OC)c1	inactive	
O=C(COC(=O)c1ccc(Cl)c(S(=O)(=O)N2CCCCC2)c1)NCC1CCCO1 (stereo not drawn)	inactive	
Cc1ccc(C(=O)Nc2cc(Cl)ccc2Oc2ccccc2)cc1[N+](=O)[O-]	inconclusive: 50.1 µM [inhibitor, partial curve]	
COCCCn1c(O)c(/C=C2\N=C(C#N)C(=Nc3ccc(C)cc3)O2)sc1=S	inconclusive: 50.1 µM [inhibitor, partial curve, poor fit]	
CCCCOC(=O)n1c(=O)oc2ccccc21	inactive	
O=C1c2ccccc2CN1CCSC(=S)N1CCSCC1	inconclusive: 89.1 µM [inhibitor, partial curve, poor fit]	
COc1ccc(CC(=O)c2cc(OC)c(OC)cc2CC(=O)O)cc1OC	inconclusive: 89.1 µM [inhibitor, single point]	
Nc1nc(N)c(N=Nc2ccc(C(=O)O)cc2)c(N)n1	inconclusive: 100 µM [inhibitor, single point]	
CCOC(=O)c1sc2ccccc2c1S(=O)(=O)N1CCN(c2ccccc2)CC1	inconclusive: 11.2 µM [inhibitor, partial curve, poor fit]	
COC(=O)c1ccc(/C=C2\CCn3c2nc2cc(C(=O)O)ccc2c3=O)cc1	active: 70.8 µM	
N/C(Cc1cccc2ccccc12)=N\OC(=O)c1cccs1	inactive	
Cc1cccc(C)c1OCc1n[nH]c(=S)o1	active: 2.24 µM	
NNS(=O)(=O)c1ccc2c(c1)Cc1cc(S(=O)(=O)NN)ccc1-2	active: 7.94 µM	
CCC(C)N(C(=O)COC(=O)c1ccc(=O)n(Cc2ccccc2)n1)C1CCS(=O)(=O)C1 (stereo not drawn)		inactive: 7.98% [at 0.501 µM]
O=C(CCc1ccccc1)NNc1cc(N2CCCCC2)nc(N2CCCCC2)n1	inconclusive: 39.8 µM [inhibitor, partial curve, poor fit]	
O=C(O)c1ccc(N2C(=O)CC(N3CCN(c4cccc(C(F)(F)F)c4)CC3)C2=O)cc1 (stereo not drawn)	active: 39.8 µM	

SMILES	Potency	activity, negative = inhibition
CC(C)C(=O)Nc1ccc(N2CCN(S(C)(=O)=O)CC2)cc1	inconclusive: 89.1 µM [inhibitor, single point]	
CC(C)C[C@H](NC(=O)[C@@H](Cc1c[nH]c2ccccc12)NC(=O)[C@@H](Cc1ccc(O)cc1)NC(=O)[C@@H](CO)NC(=O)[C@@H](Cc1c[nH]c2ccccc12)NC(=O)C(Cc1cnc[nH]1)NC(=O)C1CCC(=O)N1)C(=O)N[C@@H](CCCN=C(N)N)C(=O)N1CCC[C@@H]1C(=O)NCC(N)=O (stereo partly drawn)	inconclusive: 2.51 µM [inhibitor, partial curve, poor fit]	
CC(C)(C)c1ccc(C(=O)NNc2cc(Cl)cc(Cl)c2)cc1	active: 22.4 µM	
COc1ccccc1CNC(=O)C(=O)NCC1CCCO1 (stereo not drawn)	inconclusive: 25.1 µM [inhibitor, single point]	
O=C(O)c1ccc(S(=O)(=O)N2CCCC2)cc1	inactive	
CCOC(=O)c1nnc(-c2ccc(C)cc2)nc1Oc1ccccc1Cl	inconclusive: 8.91 µM [inhibitor, partial curve, poor fit]	
COc1ccc(C2=NN(c3ccccc3)C(c3cn(CCC(=O)O)nc3-c3ccccc3)C2)cc1 (stereo not drawn)	inconclusive: 89.1 µM [inhibitor, single point]	
C=CCNC(=O)/C(=C/c1ccco1)NC(=O)c1ccc(Br)o1	inconclusive: 15.8 µM [inhibitor, partial curve, poor fit]	
CCOC(=O)c1cnc2c(C(F)(F)F)cccc2c1Nc1cccc(C(=O)OC)c1	inactive	
COc1ccc(-c2noc(CSc3nnc(-c4ccc(Cl)cc4)n3C)n2)cc1OC	inactive	
CC12CCC(C(=O)NCc3ccccn3)(OC1=O)C2(C)C (stereo not drawn)	inconclusive: 3.16 µM [inhibitor, single point]	
O=C(CSc1nnc(Cc2cc(=O)[nH]c(=O)[nH]2)n1-c1ccccc1)NCC1CCCO1 (stereo not drawn)	inconclusive: 22.4 µM [inhibitor, single point]	
CC(C)(C)CC(C)(C)c1ccc(OCCO)cc1	inactive	
COCCn1c(=O)[nH]c(=O)c2cc(C(=O)c3cc(Cl)ccc3O)cnc21	inconclusive: 89.1 µM [inhibitor, single point]	
COc1ccccc1Nc1c2c(nc3ccc(NC(=O)c4cccc(F)c4)cc13)CCCC2	inconclusive: 28.2 µM [inhibitor, partial curve]	
CCOC(=O)CSc1nnc(Cc2ccc(OC)cc2)n1-c1ccccc1	active: 7.94 µM	
Cc1nnc(NC(=O)/C=C/c2ccco2)s1	active: 31.6 µM	
CC(=Nc1ccccc1O)c1sc2ccccc2c1O	inconclusive: 79.4 µM [inhibitor, partial curve, poor fit]	
Cc1ccc(-c2csc(NC(=O)c3cccc(N4C(=O)CCC4=O)c3)n2)o1	active: 8.91 µM	
CCOc1nc(NCCN2CCOCC2)nc(Nc2ccc([N+](=O)[O-])cc2)n1	inconclusive: 35.5 µM [inhibitor, partial curve]	
CCc1ccc(CNC(=O)C2CCN(C(=O)N3CC(CC)Oc4ccc(C)cc43)CC2)cc1 (stereo not drawn)	inactive	
CN(C)S(=O)(=O)c1ccc(C(=O)Nc2nnc(SCc3cccc(F)c3)s2)cc1	inconclusive: 22.4 µM [inhibitor, single point]	
